{"source": "the supplement of paper PMC4166925", "note": "± gives the standard deviation of the averaged measurements. The full ranking holds about 33,000 sequences; the median of “E-score (dimensionless, -0.5 to 0.5)” is about -0.046, and the highest 2% start at about 0.36. The list shows a part of the results."}
{"tested_on": "T1, SpTbr T-box DNA-binding domain (GST fusion)", "T1 sequence": "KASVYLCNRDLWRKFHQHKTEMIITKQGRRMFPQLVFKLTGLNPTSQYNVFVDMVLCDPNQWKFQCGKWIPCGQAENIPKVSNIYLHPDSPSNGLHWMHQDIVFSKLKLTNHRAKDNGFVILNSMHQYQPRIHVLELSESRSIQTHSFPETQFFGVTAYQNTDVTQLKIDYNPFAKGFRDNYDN", "assay": "PBM E-score of 8-mer (E-score (dimensionless, -0.5 to 0.5)); Tbr is Tbrain of the sea star Patiria miniata (Pm) or the sea urchin Strongylocentrotus purpuratus (Sp); higher = stronger binding preference; most listed sequences are background and not binding sites", "conditions": "the construct has about 5 more residues each side", "how_it_was_run": "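GST-fused Tbr T-box DNA-binding domains (the whole T-box plus about five flanking residues) were expressed in BL21 E. coli at 20 °C and purified by glutathione affinity chromatography. Universal Agilent oligonucleotide arrays were made double-stranded by primer extension, incubated with 200 nM protein in PBS (pH 7.5), then scanned and quantified. Every ungapped 8-mer was scored from probe intensities. The Universal PBM Analysis Suite gave each word an enrichment E-score, averaged over duplicate arrays.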"}
{"sequence": "AAACGTAT", "PBM E-score of 8-mer": "-0.0842 ± 0.022"}
{"sequence": "ACTGGCAA", "PBM E-score of 8-mer": "0.0373 ± 0.019"}
{"sequence": "ACCGTAAA", "PBM E-score of 8-mer": "-0.042 ± 0.015"}
{"sequence": "GCGCAAAA", "PBM E-score of 8-mer": "0.156 ± 0.013"}
{"sequence": "AAATGTGG", "PBM E-score of 8-mer": "0.114 ± 0.01"}
{"sequence": "AAGTTCAT", "PBM E-score of 8-mer": "-0.134 ± 0.013"}
{"sequence": "CACGTTGC", "PBM E-score of 8-mer": "0.101 ± 0.025"}
{"sequence": "AGGGAGTA", "PBM E-score of 8-mer": "-0.128 ± 0.028"}
{"sequence": "GGACCCCC", "PBM E-score of 8-mer": "-0.244 ± 0.056"}
{"sequence": "GAGCGCGC", "PBM E-score of 8-mer": "0.0155 ± 0.12"}
{"sequence": "AGGCGGCC", "PBM E-score of 8-mer": "-0.318 ± 0.024"}
{"sequence": "AGGTCGAC", "PBM E-score of 8-mer": "-0.00677 ± 0.036"}
{"sequence": "ACTTGCAC", "PBM E-score of 8-mer": "0.222 ± 0.0074"}
{"sequence": "AGACCACC", "PBM E-score of 8-mer": "-0.155 ± 0.09"}
{"sequence": "CCTTCAGC", "PBM E-score of 8-mer": "-0.114 ± 0.025"}
{"sequence": "CCGCGGAG", "PBM E-score of 8-mer": "-0.00051 ± 0.059"}
{"sequence": "CAGACATA", "PBM E-score of 8-mer": "0.139 ± 0.028"}
{"sequence": "ACTAGCGA", "PBM E-score of 8-mer": "0.0827 ± 0.051"}
{"sequence": "AAACGGCA", "PBM E-score of 8-mer": "0.0106 ± 0.047"}
{"sequence": "ATACATCA", "PBM E-score of 8-mer": "-0.036 ± 0.032"}
{"sequence": "GTCTTCAA", "PBM E-score of 8-mer": "-0.051 ± 0.034"}
{"sequence": "GGGCTCAA", "PBM E-score of 8-mer": "-0.179 ± 0.026"}
{"sequence": "CAGAGGTA", "PBM E-score of 8-mer": "-0.274 ± 0.037"}
{"sequence": "GGATCCAC", "PBM E-score of 8-mer": "-0.00958 ± 0.069"}
{"sequence": "GATGCCGC", "PBM E-score of 8-mer": "0.0365 ± 0.034"}
{"sequence": "CGAGCTCG", "PBM E-score of 8-mer": "-0.1585 ± 0.00081"}
{"sequence": "GGCGTAGA", "PBM E-score of 8-mer": "-0.0321 ± 0.11"}
{"sequence": "CTAACACC", "PBM E-score of 8-mer": "0.464 ± 0.005"}
{"sequence": "AATTCGCA", "PBM E-score of 8-mer": "0.321 ± 0.023"}
{"sequence": "GATCACGA", "PBM E-score of 8-mer": "0.0322 ± 0.019"}
{"sequence": "CGCGTAGC", "PBM E-score of 8-mer": "0.105 ± 0.024"}
{"sequence": "CCCTACGG", "PBM E-score of 8-mer": "-0.16 ± 0.042"}
{"sequence": "GACACTAC", "PBM E-score of 8-mer": "0.278 ± 0.0049"}
{"sequence": "CTAGAATA", "PBM E-score of 8-mer": "-0.0858 ± 0.03"}
{"sequence": "ATACTCGC", "PBM E-score of 8-mer": "0.0835 ± 0.039"}
{"sequence": "GAGCACTA", "PBM E-score of 8-mer": "-0.0759 ± 0.012"}
{"sequence": "ATCGCAAA", "PBM E-score of 8-mer": "0.0887 ± 0.0029"}
{"sequence": "AAGATGGA", "PBM E-score of 8-mer": "-0.272 ± 0.018"}
{"sequence": "AGCGTTGG", "PBM E-score of 8-mer": "0.0877 ± 0.015"}
{"sequence": "GCTGCCCA", "PBM E-score of 8-mer": "-0.0939 ± 0.011"}
{"sequence": "GCTAATCA", "PBM E-score of 8-mer": "0.0979 ± 0.045"}
{"sequence": "TATTGCCA", "PBM E-score of 8-mer": "0.0232 ± 0.0082"}
{"sequence": "GCGCTGGA", "PBM E-score of 8-mer": "-0.0753 ± 0.081"}
{"sequence": "CGAAGTCA", "PBM E-score of 8-mer": "-0.0307 ± 0.014"}
{"sequence": "ATTCGCTC", "PBM E-score of 8-mer": "-0.165 ± 0.089"}
{"sequence": "ACAGCTCC", "PBM E-score of 8-mer": "0.157 ± 0.0081"}
{"sequence": "GATGTTCC", "PBM E-score of 8-mer": "-0.148 ± 0.054"}
{"sequence": "TACAATCA", "PBM E-score of 8-mer": "-0.097 ± 0.0025"}
{"sequence": "AAATGTAG", "PBM E-score of 8-mer": "-0.136 ± 0.082"}
{"sequence": "ATTCGTAC", "PBM E-score of 8-mer": "-0.00244 ± 0.025"}
{"sequence": "AAGAGATA", "PBM E-score of 8-mer": "-0.0138 ± 0.011"}
{"sequence": "GATCGACA", "PBM E-score of 8-mer": "0.279 ± 0.0041"}
{"sequence": "CCATTTGA", "PBM E-score of 8-mer": "-0.149 ± 0.051"}
{"sequence": "CGTGCTAA", "PBM E-score of 8-mer": "0.349 ± 0.0041"}
{"sequence": "AATCTTGT", "PBM E-score of 8-mer": "-0.00257 ± 0.018"}
{"sequence": "GTCGCAGA", "PBM E-score of 8-mer": "-0.0708 ± 0.1"}
{"sequence": "ACCCTCCC", "PBM E-score of 8-mer": "-0.00241 ± 0.053"}
{"sequence": "TACTCCAA", "PBM E-score of 8-mer": "-0.0728 ± 0.031"}
{"sequence": "TCTTCGCA", "PBM E-score of 8-mer": "0.307 ± 0.036"}
{"sequence": "CTTCAGTC", "PBM E-score of 8-mer": "-0.0612 ± 0.0078"}
{"sequence": "AACGAAGG", "PBM E-score of 8-mer": "-0.222 ± 0.041"}
{"sequence": "ACGTCAAC", "PBM E-score of 8-mer": "0.0682 ± 0.016"}
{"sequence": "GATCAGGC", "PBM E-score of 8-mer": "-0.0443 ± 0.092"}
{"sequence": "ATTGAGTG", "PBM E-score of 8-mer": "0.219 ± 0.02"}
{"sequence": "AGTCTAGA", "PBM E-score of 8-mer": "-0.216 ± 0.027"}
{"sequence": "TCCAAGGA", "PBM E-score of 8-mer": "-0.335 ± 0.04"}
{"sequence": "ATATCTGC", "PBM E-score of 8-mer": "-0.0996 ± 0.048"}
{"sequence": "ACGATAAA", "PBM E-score of 8-mer": "0.0963 ± 0.028"}
{"sequence": "ACGTCCCT", "PBM E-score of 8-mer": "-0.124 ± 0.037"}
{"sequence": "AAAGTAGG", "PBM E-score of 8-mer": "-0.0927 ± 0.032"}
{"sequence": "AGAGGCTG", "PBM E-score of 8-mer": "-0.073 ± 0.087"}
{"sequence": "GTTGACTA", "PBM E-score of 8-mer": "0.0965 ± 0.0034"}
{"sequence": "ACATGTAA", "PBM E-score of 8-mer": "0.0603 ± 0.025"}
{"sequence": "GCCTTGGA", "PBM E-score of 8-mer": "-0.173 ± 0.012"}
{"sequence": "AACTCTCT", "PBM E-score of 8-mer": "-0.13 ± 0.018"}
{"sequence": "ACTGCCCG", "PBM E-score of 8-mer": "-0.12 ± 0.018"}
{"sequence": "CTCAAACA", "PBM E-score of 8-mer": "-0.0585 ± 0.013"}
{"sequence": "TAGGCCCA", "PBM E-score of 8-mer": "-0.289 ± 0.052"}
{"sequence": "ACGACAAC", "PBM E-score of 8-mer": "0.2279 ± 0.0012"}
{"sequence": "ATGTGAAC", "PBM E-score of 8-mer": "0.203 ± 0.012"}
{"sequence": "AGCGCTTA", "PBM E-score of 8-mer": "0.176 ± 0.032"}
{"sequence": "TAAATTAA", "PBM E-score of 8-mer": "-0.163 ± 0.05"}
{"sequence": "ATTGCACC", "PBM E-score of 8-mer": "0.274 ± 0.031"}
{"sequence": "CCTTGATA", "PBM E-score of 8-mer": "-0.0451 ± 0.022"}
{"sequence": "ATATTAAT", "PBM E-score of 8-mer": "-0.209 ± 0.078"}
{"sequence": "ATCTAGCA", "PBM E-score of 8-mer": "0.111 ± 0.059"}
